Experiments:
SARS-CoV-2 M^pro [1] = molecular target: T1, SARS-CoV-2 M^pro (Severe acute respiratory syndrome coronavirus 2, UniProt P0DTD1); conditions: 1 μM M^pro, 20 μM compound; for melting temperature of M^pro: DMSO control 56.32-56.58 °C
SARS-CoV-2 M^pro [2] = molecular target: T1, SARS-CoV-2 M^pro; experiment: biochemical; conditions: for inhibitory activity in the protease assay in the presence of cell lysate: 1 μg cell lysate, 40 μM compound; for inhibitory activity against M^pro in the presence of cell lysate: dose-response, 0.1 μg protein lysate; for IC50: in vitro FRET protease assay, 100 nM M^pro, 500 nM substrate, 22 °C; for inhibition at 40 µM: final compound concentration 40 μM, read-out: inhibition of the protease activity of M^pro (pre-defined threshold level)

SMILES: CS(=O)(=O)c1ncc(Cl)c(C(=O)C(C#N)c2nc3ccc(Cl)cc3c(=O)[nH]2)n1 (centres unmarked) [Z56785964]
- melting temperature of M^pro (SARS-CoV-2 M^pro [1]): 48.63-55.98 °C

SMILES: N#CC(C(=O)c1nc(N2CCC(Cc3ccccc3)CC2)ncc1Cl)c1nc2ccc(Cl)cc2c(=O)[nH]1 (centres unmarked) [Z56786187]
- inhibitory activity in the protease assay in the presence of cell lysate (SARS-CoV-2 M^pro [2]): lost activity
- melting temperature of M^pro (SARS-CoV-2 M^pro [1]): 52 °C

SMILES: O=C1CC(C(=O)Nc2ccc(Br)cc2)c2ccccc2N1 (centres unmarked) [Z222977344]
- inhibitory activity against M^pro in the presence of cell lysate (SARS-CoV-2 M^pro [2]): retained
- IC50 (SARS-CoV-2 M^pro [2]): 2 µM
- melting temperature of M^pro (SARS-CoV-2 M^pro [1]): 57.24 °C

SMILES: O=C1CC(C(=O)Nc2ccc(Cl)cc2)c2ccccc2N1 (centres unmarked) [Z222978028]
- inhibitory activity against M^pro in the presence of cell lysate (SARS-CoV-2 M^pro [2]): retained
- IC50 (SARS-CoV-2 M^pro [2]): 5.8 µM
- melting temperature of M^pro (SARS-CoV-2 M^pro [1]): 57.02 °C

SMILES: CSc1ccc(NC(=O)C2CC(=O)Nc3cc(F)ccc32)cc1 (centres unmarked) [Z225602086]
- IC50 (SARS-CoV-2 M^pro [2]): 7.4 µM
- melting temperature of M^pro (SARS-CoV-2 M^pro [1]): 57.02 °C

SMILES: CSc1ccc(NC(=O)C2CC(=O)Nc3ccccc32)cc1 (centres unmarked) [Z228166018]
- inhibitory activity against M^pro in the presence of cell lysate (SARS-CoV-2 M^pro [2]): retained
- IC50 (SARS-CoV-2 M^pro [2]): 1.6 µM
- melting temperature of M^pro (SARS-CoV-2 M^pro [1]): 57.43 °C

SMILES: O=C1CC(C(=O)Nc2ccc(I)cc2)c2ccc(F)cc2N1 (centres unmarked) [Z228770960]
- IC50 (SARS-CoV-2 M^pro [2]): 4 µM
- increase of the melting temperature of M^pro (SARS-CoV-2 M^pro [1]; versus DMSO): 1.2 °C
- melting temperature of M^pro (SARS-CoV-2 M^pro [1]): 57.56 °C

SMILES: N#CC(C(=O)c1nc(-c2ccccc2)n(-c2ccccc2)n1)c1nc2sc3c(c2c(=O)[nH]1)CCCC3 (centres unmarked) [Z637352244]
- inhibitory activity in the protease assay in the presence of cell lysate (SARS-CoV-2 M^pro [2]): lost activity
- inhibition at 40 µM (SARS-CoV-2 M^pro [2]): > 25%
- IC50 (SARS-CoV-2 M^pro [2]): 22 µM
- melting temperature of M^pro (SARS-CoV-2 M^pro [1]): 53.85 °C

SMILES: Cc1oc(-c2ccccc2)nc1C(=O)C(C#N)c1nc2sc3c(c2c(=O)[nH]1)CCCC3 (centres unmarked) [Z637352638]
- IC50 (SARS-CoV-2 M^pro [2]): 7.5 µM
- melting temperature of M^pro (SARS-CoV-2 M^pro [1]): 45.5-56.55 °C

SMILES: CC(=O)c1ccc(-c2ccc(C(=O)C(C#N)c3nc4sc5c(c4c(=O)[nH]3)CCCC5)o2)cc1 (centres unmarked) [Z637352642]
- inhibition at 40 µM (SARS-CoV-2 M^pro [2]): > 25%
- IC50 (SARS-CoV-2 M^pro [2]): 223 µM
- melting temperature of M^pro (SARS-CoV-2 M^pro [1]): 54.65 °C

SMILES: N#CC(C(=O)C1=Cc2cc(Cl)ccc2OC1)c1nc2cc(Cl)ccc2c(=O)[nH]1 (centres unmarked) [Z637450230]
- inhibitory activity in the protease assay in the presence of cell lysate (SARS-CoV-2 M^pro [2]): lost activity
- effect on the melting temperature of M^pro (SARS-CoV-2 M^pro [1]): did not affect the melting temperature
- melting temperature of M^pro (SARS-CoV-2 M^pro [1]): 56.55 °C

SMILES: c1cnc(N2CCCC(Nc3nc(NC4CCCN(c5ncccn5)C4)c4ccccc4n3)C2)nc1 (centres unmarked) [Z1037455358]
- inhibitory activity in the protease assay in the presence of cell lysate (SARS-CoV-2 M^pro [2]): lost activity
- inhibition at 40 µM (SARS-CoV-2 M^pro [2]): > 25%
- IC50 (SARS-CoV-2 M^pro [2]): 26 µM
- effect on the melting temperature of M^pro (SARS-CoV-2 M^pro [1]): decreased the melting temperature
- melting temperature of M^pro (SARS-CoV-2 M^pro [1]): 55.9 °C

SMILES: Cc1cc(C)c2nc(C(C#N)C(=O)c3nc(S(C)(=O)=O)ncc3Cl)[nH]c(=O)c2c1 (centres unmarked) [Z2239054061]
- IC50 (SARS-CoV-2 M^pro [2]): 6.7 µM
- melting temperature of M^pro (SARS-CoV-2 M^pro [1]): 48.8-55.5 °C

SMILES: Cn1cc(-c2cc(F)ccc2NC(=O)C2CC(=O)Nc3cc(F)ccc32)cn1 (centres unmarked) [ZINC000373659060]
- inhibitory activity in the protease assay in the presence of cell lysate (SARS-CoV-2 M^pro [2]): maintained inhibitory activity
- inhibition at 40 µM (SARS-CoV-2 M^pro [2]): > 25%
- IC50 (SARS-CoV-2 M^pro [2]): 58 µM
- melting temperature of M^pro (SARS-CoV-2 M^pro [1]): 56.36 °C

SMILES: Cc1cc(NC(=O)C2CC(=O)Nc3cc(F)ccc32)n(-c2cccc(Cl)c2)n1 (centres unmarked) [ZINC000636416501]
- inhibitory activity in the protease assay in the presence of cell lysate (SARS-CoV-2 M^pro [2]): maintained inhibitory activity
- inhibition at 40 µM (SARS-CoV-2 M^pro [2]): > 25%
- IC50 (SARS-CoV-2 M^pro [2]): 93 µM
- melting temperature of M^pro (SARS-CoV-2 M^pro [1]): 56.36 °C

Reference: PMC8847420, “Non-covalent SARS-CoV-2 M^pro inhibitors developed from in silico screen hits” (Scientific Reports, 2022)
